Experimental data from the supplement of paper PMC4967469.

Legend:
Test in all cases: Viability of human cancer cell lines after 72 h of drug (GDSC screen)
CAY10603 = compound: CC(C)(C)OC(=O)Nc1ccc(-c2cc(C(=O)NCCCCCCC(=O)NO)no2)cc1 [CAY10603]; conditions: top dose 20 µM; top dose inferred
Method: (§1)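 Human cancer cell lines in 384-well plates, medium with 10% serum, drug for 72 h over a 256-fold dose range (nine 2-fold or five 4-fold steps up to the top dose). Adherent lines were fixed and stained with the nucleic acid dye Syto60, suspension lines read with resazurin; signal relative to control wells, capped at 0 and 100%. One two-parameter sigmoid per drug and line, fitted in a mixed model over all curves with the slope shared within a line.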

XMD8-92 = compound: CCOc1cc(N2CCC(O)CC2)ccc1Nc1ncc2c(n1)N(C)c1ccccc1C(=O)N2C [XMD8-92]; conditions: top dose 10 µM; top dose inferred
Method: as §1

CH5424802 = compound: CCc1cc2c(cc1N1CCC(N3CCOCC3)CC1)C(C)(C)c1[nH]c3cc(C#N)ccc3c1C2=O [CH5424802]; conditions: top dose 5.12 µM; top dose inferred
Method: as §1

ACHP (KIN001-260) = compound: N#Cc1c(C2CCNCC2)cc(-c2c(O)cccc2OCC2CC2)nc1N [ACHP (KIN001-260)]; conditions: top dose 20 µM; top dose inferred
Method: as §1

Row | Cell Line | AUC (CAY10603) | IC50 (CAY10603) [µM] | AUC (XMD8-92) | IC50 (XMD8-92) [µM] | AUC (CH5424802) | IC50 (CH5424802) [µM] | AUC (ACHP (KIN001-260)) | IC50 (ACHP (KIN001-260)) [µM]
1 | NCI-H446 (small cell lung carcinoma, semi-adherent) | 0.371 | 0.536 | 0.855 | 8.89 | 0.985 | > 5.12 | 0.9 | > 20
2 | NCI-H460 (large cell lung carcinoma, adherent) | 0.908 | > 20 | 0.986 | > 10 | 0.99 | > 5.12 | 0.979 | > 20
3 | NCI-H524 (small cell lung carcinoma, suspension) | 0.788 | 7.77 | 0.965 | > 10 | 0.989 | > 5.12 | 0.99 | > 20
4 | NCI-H630 (large intestine, adherent) | 0.63 | 2.93 | 0.867 | > 10 | 0.892 | > 5.12 | 0.976 | > 20
5 | NCI-H650 (lung adenocarcinoma, adherent) | 0.552 | 1.76 | 0.914 | > 10 | 0.918 | > 5.12 | 0.967 | > 20
6 | NCI-H716 (large intestine, suspension) | 0.664 | 4.05 | 0.842 | 9.85 | 0.971 | > 5.12 | 0.892 | > 20
7 | NCI-H720 (lung carcinoid, suspension) | 0.968 | > 20 | 0.971 | > 10 | 0.992 | > 5.12 | 0.991 | > 20
8 | NCI-H747 (large intestine, adherent) | 0.564 | 1.94 | 0.855 | > 10 | 0.951 | > 5.12 | 0.949 | > 20
9 | NCI-H810 (large cell lung carcinoma, adherent) | 0.308 | 0.373 | 0.892 | > 10 | 0.975 | > 5.12 | 0.946 | > 20
10 | NCI-H841 (small cell lung carcinoma, adherent) | 0.77 | 7.66 | 0.961 | > 10 | 0.988 | > 5.12 | 0.98 | > 20
11 | NCI-H847 (small cell lung carcinoma, adherent) | 0.198 | 0.202 | 0.901 | 8.57 | 0.963 | > 5.12 | 0.882 | 14.3
12 | NCI-H1155 (large cell lung carcinoma, suspension) | 0.593 | 2.14 | 0.948 | > 10 | 0.993 | > 5.12 | 0.989 | > 20
13 | NCI-H1304 (small cell lung carcinoma, suspension) | 0.755 | 7.28 | 0.885 | > 10 | 0.973 | > 5.12 | 0.988 | > 20
14 | NCI-H1355 (lung adenocarcinoma, adherent) | 0.917 | > 20 | 0.928 | > 10 | 0.978 | > 5.12 | 0.975 | > 20
15 | NCI-H1395 (lung adenocarcinoma, adherent) | 0.675 | 4.53 | 0.97 | > 10 | 0.948 | > 5.12 | 0.973 | > 20
16 | NCI-H1436 (small cell lung carcinoma, suspension) | 0.468 | 1.01 | 0.963 | > 10 | 0.977 | > 5.12 | 0.971 | > 20
17 | NCI-H1437 (lung adenocarcinoma, adherent) | 0.63 | 2.9 | 0.946 | > 10 | 0.976 | > 5.12 | 0.969 | > 20
18 | NCI-H1563 (lung adenocarcinoma, adherent) | 0.742 | 7.12 | 0.945 | > 10 | 0.959 | > 5.12 | 0.868 | > 20
19 | NCI-H1568 (lung adenocarcinoma, adherent) | 0.982 | > 20 | 0.905 | > 10 | 0.968 | > 5.12 | 0.982 | > 20
20 | NCI-H1623 (lung adenocarcinoma, adherent) | 0.593 | 2.39 | 0.983 | > 10 | 0.981 | > 5.12 | 0.977 | > 20
21 | NCI-H1648 (lung adenocarcinoma, adherent) | 0.474 | 1.06 | 0.967 | > 10 | 0.899 | > 5.12 | 0.983 | > 20
22 | NCI-H1651 (lung adenocarcinoma, adherent) | 0.623 | 2.81 | 0.985 | > 10 | 0.986 | > 5.12 | 0.985 | > 20
23 | NCI-H1688 (small cell lung carcinoma, adherent) | 0.561 | 1.87 | 0.982 | > 10 | 0.986 | > 5.12 | 0.966 | > 20
24 | NCI-H1694 (small cell lung carcinoma, suspension) | 0.541 | 1.62 | 0.947 | > 10 | 0.905 | > 5.12 | 0.973 | > 20
25 | NCI-H1755 (lung adenocarcinoma, adherent) | 0.302 | 0.314 | 0.96 | > 10 | 0.919 | > 5.12 | 0.837 | 16.4
26 | NCI-H1770 (non-small cell lung carcinoma, suspension) | 0.666 | 3.39 | 0.986 | > 10 | 0.992 | > 5.12 | 0.99 | > 20
27 | NCI-H1781 (lung adenocarcinoma, adherent) | 0.846 | 14.6 | 0.987 | > 10 | 0.988 | > 5.12 | 0.966 | > 20
28 | NCI-H1792 (lung adenocarcinoma, adherent) | 0.852 | 13.2 | 0.931 | > 10 | 0.96 | > 5.12 | 0.99 | > 20

The IC50 comes from the fitted curve, where viability falls to half of the control; a fit beyond the top or the lowest dose is shown as a bound at that dose. For AUC the same curve is integrated over the 256-fold range of doses and scaled to a fraction: 1 means no effect, lower means more sensitive. Any top dose called inferred is not printed in the source and was worked back from the curve model.
